Source: ChEMBL document CHEMBL1201862, “PubChem BioAssay data set” (2004)
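Growth conditions: 96-well plates. Treatment: test compound, 48 hours, 5 concentrations. Analysis: linear interpolation between bracketing concentrations; unreached endpoints set to highest concentration. Here, GI50 denotes the concentration required for 50% inhibition of growth.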 Activity calls are given as the source filed them. Cut-off read from the data, not from the text of the source: active = GI50 up to about 1.1 µM and inactive = higher.

Tested on: NCI-H322M
Test: growth of human tumour cells (NCI), 48 h

SMILES | GI50
Cc1cc(C(C)(C)C)cc(CNC2CCCCC2)c1O | inactive: 18.1 µM
O=C1NC(=S)NC(=O)C1=Cc1cccc2cc3ccccc3cc12 | inactive: 3.21 µM
OCc1ccc(-c2ccc(-c3ccc(CO)s3)o2)s1 | inactive: 9.62 µM
COc1ccc(-c2c3c(nc4nc(SCCc5ccccc5)nc(N)c24)CCCC3)cc1OC | inactive: > 100 µM
COc1cc(C2c3cc4c(cc3OC(NCCc3ccccc3)C2C)OCO4)cc(OC)c1OC (stereo not given) | active: 0.486 µM
CC(=O)CC[N+](C)(C)C | inactive: > 100 µM
O=C(N/N=C/c1ccc2c(c1)CCC2)c1ccccc1O | inactive: 21.5 µM
O/N=C1\C(=C\c2ccc3c(c2)OCCO3)CCCC1C(NO)c1ccc2c(c1)OCCO2 (stereo not given) | inactive: 18.5 µM
[N-]=[N+]=Nc1cccc(-c2nnc(Cl)cc2O)c1 | inactive: > 100 µM
NC(Cc1ccc(O)cn1)C(=O)NC(C(=O)O)c1ccccc1 (stereo not given) | inactive: > 100 µM
Nc1ncnc2nc(N3CCN(CCO)CC3)[nH]c12 | inactive: > 100 µM
CC[P+](C)(C)c1ccccc1 | inactive: > 100 µM
CC1(C)CCOC(=O)C(Cl)CC1Cl (stereo not given) | inactive: > 100 µM
CC1(C)C(=O)C2(C#N)CCC1C2 (stereo not given) | inactive: > 100 µM
O=C1OC(c2ccccc2)=N/C1=C/NC(Cc1ccc(O)cc1)C(=O)O (stereo not given) | inactive: > 100 µM
C=CC1(CC/C(=C\[N+](=O)[O-])c2ccc(OC)c(OC)c2)OCC(C)(C)CO1 | inactive: 19.7 µM
COC(=O)NN1C(C)=C(C(=O)OC)C2(CCOC2=O)C1(C)O (stereo not given) | inactive: > 100 µM
CCCCCCCCCCCCCB(O)O | inactive: > 100 µM
CC1=CC(=O)/C(=C/NC(=S)NCCc2ccccc2)C(=O)O1 | inactive: 37.8 µM
O=C(CNc1ccc(Cl)cc1Cl)NC1C=Cc2ccc(S(=O)(=O)Nc3ccc(Cl)cc3Cl)cc2C1=O (stereo not given) | inactive: > 100 µM
COC(=O)C1C=CN(N(C)C)C2=C1C(=O)c1c(O)cccc1C2=O (stereo not given) | inactive: 1.95 µM
Cc1cccc(NC(=S)Nc2cccc(Cl)c2)n1 | inactive: > 100 µM
CCC1(CC)C(=O)NN(C(=O)c2ccccc2)C1=O | inactive: > 100 µM
CCc1n[nH]c(=O)n1/N=C(\C)c1ccccc1 | inactive: > 100 µM

SMILES | GI50
COC1CC(OC2CCC3(C)C(CCC45CCC(C6=CC(=O)OC6)C(C)(CCC43)C5=O)C2)OC(C)C1O (stereo not given) | inactive: 44.5 µM
CSc1nc(NC2OC(COC(C)=O)C(OC(C)=O)C(OC(C)=O)C2OC(C)=O)c(/N=C(\C)C(C)=O)c(=O)n1C (stereo not given) | inactive: > 100 µM
Cc1cc(C)c(-n2c(-c3ccc(Br)cc3)cs/c2=N\N=C2C=C(C(C)(C)C)C(=O)C(C(C)(C)C)=C2)c(C)c1 | inactive: > 100 µM
Cc1ccc(/N=N/c2c(O)c3ccccc3[nH]c2=O)c(S(=O)(=O)N(C)C)c1 | inactive: > 100 µM
CCOC1NC(/N=C/c2ccc(OC)cc2)=C(C#N)C1C#N (stereo not given) | inactive: > 100 µM
COc1ccc(C(O)/C(=C/n2ccnc2)c2ccccc2)cc1OC (stereo not given) | inactive: > 100 µM
Cc1nn(C(=O)CC(=O)Nc2ccccc2Cl)c(C)c1/N=N/c1ccccc1Cl | inactive: > 100 µM
COC(=O)C(C(=O)C(=O)Nc1ccc(C)cc1C)c1nc2ccc([N+](=O)[O-])cc2nc1O (stereo not given) | inactive: > 100 µM
COC1/C=C\OC2(C)Oc3c(C)c(O)c4c(O)c(c(CN(C)C)c(O)c4c3C2=O)NC(=O)/C(C)=C\C=C/C(C)C(O)C(C)C(O)C(C)C(OC(C)=O)C1C (stereo not given) | inactive: 24.8 µM
COc1ccc(C23c4ccc(OC)cc4CC2(c2ccc([N+](=O)[O-])cc2)Cc2cc(OC)ccc23)cc1 (stereo not given) | inactive: > 36.1 µM
CCCCN1CN2C(=O)C(C(=O)OCC)C(=O)c3sc4nc(SC)nc1c4c32 (stereo not given) | inactive: 13.4 µM
CCOC(=O)C1Cc2ccc3c4c(ccc(c24)C1)CC(C(=O)OCC)C3 | inactive: > 100 µM
CCOC(=O)/C(=C/c1ccc(C(F)(F)F)cc1)N(CC)CC | inactive: 73.8 µM
CC(=O)NC(C)(C)C1CCC(C)CC1 (stereo not given) | inactive: > 100 µM
CCOC(=O)c1c(Br)c(-c2ccc(OC)cc2)c(Br)n1C | inactive: > 10 µM
CSC1=NN=C(SC)NN1 | active: 0.178 µM
COc1ccc2c(c1)[n+]([O-])c(C(=O)CC(=O)C(=O)Nc1cccc(C)c1C)c(C)[n+]2[O-] | inactive: > 100 µM
CC(C)C[S+]1C2=C(CC(C)(C)CC2=O)[N-]c2ccccc21 (stereo not given) | inactive: 95.7 µM
N#CCC(=O)Nc1cccc(C(F)(F)F)c1 | inactive: > 100 µM
C=C1c2nc3ccccc3n2C=C(c2ccc(C)cc2)N1c1ccc(C)cc1 | inactive: > 100 µM
Cc1nc2c(Cl)cc(Cl)cc2c(Cl)c1CCCl | inactive: > 100 µM
CNC(=O)c1nn[nH]c1Sc1c([N+](=O)[O-])ncn1C | inactive: > 100 µM
O=c1[nH]c(-c2ccccc2)nc2c1sc1nc3ccccc3n12 | inactive: > 100 µM
C[C@H](NC1=CC(=O)C(N[C@@H](C)[C@H](O)c2ccccc2)=CC1=O)[C@H](O)c1ccccc1 | inactive: > 100 µM

SMILES | GI50
O=S(=O)([C-]([I+]c1ccccc1)S(=O)(=O)C(F)(F)C(F)(F)C(F)(F)C(F)(F)F)C(F)(F)C(F)(F)C(F)(F)C(F)(F)F | inactive: 16.7 µM
CC(C)(C)C1CCC(=O)/C(=C/CC2CC(=O)N(c3ccccc3)C(=O)C2)C1 (stereo not given) | inactive: 20 µM
CC1(C)SCc2nc3ccccc3n21 | inactive: > 100 µM
COc1ccccc1NC(=O)C1=C(C)NC(C)=C(C(=O)Nc2ccccc2OC)C1c1cccc2c1OCO2 | inactive: > 100 µM
O=[N+]([O-])/C(C(Cl)=C(Cl)Cl)=C(\Nc1cccc2cccnc12)SCc1ccccc1 | inactive: 20.3 µM
N#CC(C(=O)/C(=N\NC(N)=O)C(C#N)c1ccccc1)c1ccccc1 (stereo not given) | inactive: > 100 µM
NNC(=S)NCCNC(=S)NN | inactive: > 100 µM
O/N=C(\CC(O)(C(F)(F)F)C(F)(F)F)c1cccs1 | inactive: > 10 µM
COc1ccc(NC(=O)CC(=O)NN)cc1 | inactive: > 100 µM
FC1(F)ON2CCc3ccccc3C2[C@H]1c1ccccc1 (stereo not given in full) | inactive: > 10 µM
O=C(Nc1c(C(=O)NC2CCCCC2)[nH]c(=O)[nH]c1=O)c1ccc(Cl)cc1 | inactive: > 100 µM
Cc1noc2nnn(-c3ccc(Cl)cc3)c(=O)c12 | inactive: 11.9 µM
CCOC(=O)c1c(SCCCN2CCCCC2)n(-c2ccccc2)c(=S)n(-c2ccccc2)c1=O | inactive: 18.2 µM
CN(C)c1nc(NC23CC4CC(CC(C4)C2)C3)nc(N(C)C)n1 | inactive: 5.64 µM
CN(C)c1ccc(-c2c(C#N)c(S)n(NS(=O)(=O)c3ccccc3)c(=O)c2C#N)cc1 | inactive: 66.1 µM
Cc1cc(S(=O)(=O)N=C2N(Cc3ccccc3)CCN2Cc2ccccc2)c(S)cc1Cl | inactive: 74.3 µM
O=C1C(Nc2ccccc2)=CC2=NCCc3n[nH]c1c32 | inactive: 44.9 µM
COc1cc2c(/C=C3/C(=O)Nc4ccc(O)cc43)c(Cl)n(Cc3ccccc3)c2cc1C | active: 0.938 µM
O=C(O)CN1C(=O)c2ccc(NC(=O)C(=O)O)cc2S1(=O)=O | inactive: > 100 µM
C[C@@H](CC(=O)O)OC1OC(COC(=O)C(C)(C)C)C(OC(=O)C(C)(C)C)C(OC(=O)C(C)(C)C)C1OC(=O)C(C)(C)C (stereo not given in full) | inactive: > 100 µM
CC(=O)NC(CCCCNCc1ccccc1)C(=O)NCc1ccccc1 (stereo not given) | inactive: > 100 µM
C=C1C(=O)OC2/C=C(\C)C(O)CC(O)C(C)(O)CC(OC(=O)/C(C)=C/C)C12 (stereo not given) | inactive: 50.7 µM
CCCCCCCCCCCCCCCCNCC(O)CN (stereo not given) | inactive: 4.44 µM
CC(N)C(C)c1ccccc1 (stereo not given) | inactive: > 100 µM

SMILES | GI50
CCN(CCCl)c1ccc(NC(=O)c2cc(C(=O)NCCN(C)C)cc(C(=O)Nc3ccc(N(CC)CCCl)cc3)c2)cc1 | inactive: 11.9 µM
COC(=O)c1c(OC(C)=O)ccc2c1c1c(OC(C)=O)c3ccccc3c(OC(C)=O)c1n2Cc1ccccc1 | inactive: 5.78 µM
Cc1cc(Cc2c(F)c(F)c(Cc3cc(C)no3)c(F)c2F)on1 | inactive: > 100 µM
CCOC(=O)c1nc2c3c(ncn2n1)Oc1c(c(-c2ccccc2)nn1-c1ccccc1)C3c1ccc(OC)c(OC)c1 (stereo not given) | inactive: > 100 µM
COC(=O)C1Cc2c([nH]c3ccccc23)C(C2CCCCC2)N1 (stereo not given) | inactive: > 100 µM
O=C1c2ccccc2-c2ccc(/N=[N+](/[O-])c3ccc4c(c3)C(=O)c3ccccc3-4)cc21 | inactive: > 100 µM
CCOC(=O)C(NC(=O)c1ccccc1)(Nc1ccc(Cl)cc1C(F)(F)F)C(F)(F)F (stereo not given) | inactive: 20.7 µM
Cc1nc(C(=O)O)c2ccccc2n1 | inactive: > 100 µM
COc1ccc2c(c1)CCN=C2Cc1cc(OC)c(OC)cc1CCCl | inactive: 85.3 µM
O=[N+]([O-])c1ccc2c(/N=N/c3ccc4ccccc4c3O)c(O)cc(S(=O)(=O)O)c2c1 | inactive: 14.8 µM
O=C(O)c1cc(C(=O)C(=O)c2cc(C(=O)O)c(O)c3ccccc23)c2ccccc2c1O | inactive: > 100 µM
C[C@H]1O[C@@H](C(C)(C)C)OC(=O)[C@@H]1C(OC(=O)c1ccccc1)c1cccc2ccccc12 (stereo not given in full) | inactive: > 100 µM
COC(=O)CCC12CCC(=O)C1[C@@H](C(=O)OC)C[C@H]2C(=O)OC (stereo not given in full) | inactive: > 100 µM
Cc1c(C(=O)/C=C/c2ccc3c(c2)OCO3)[n+]([O-])c2ccccc2[n+]1[O-] | inactive: 37.3 µM
O=C(O)COc1cc(-c2ccccc2)nc2ccccc12 | inactive: 49.1 µM
CN(C)/C=C/c1ccnc2c1C(=O)c1ccccc1C2=O | inactive: 13.4 µM
OCCNc1ncnc2[nH]cnc12 | inactive: > 100 µM
Cc1cc(S(=O)(=O)Nc2nc3ccsc3c(=O)n2N)c(S)cc1Cl | inactive: 52 µM
NCCNCCCCCCNC(=O)c1cccc2cc3ccccc3nc12 | inactive: 2.94 µM
c1ccc2c(c1)ccn2CCc1c[nH]c2ccccc12 | inactive: > 10 µM
Nc1cc(CO)cc(Nc2c3ccccc3nc3ccccc23)c1 | inactive: 24.4 µM
CC(=O)/C=C/c1ccc(C)cc1 | inactive: > 100 µM
COc1cc(OC)cc(-c2cc(=O)c3c(OC)c(OC)c(OC)c(OC)c3o2)c1 | inactive: 49.2 µM
